Measurements taken from article PMC5892938.
Some of the results follow. At the low end of the ranking the order means little.

Each sequence was assayed against GST-SBP-SLBP (stem-loop binding protein) (UniProt Q14493) (assay: targeted RNA Bind-n-Seq). Settings: RBNS binding buffer: 25 mM Tris pH 7.5, 150 mM KCl, 3 mM MgCl2, 0.1% Tween, 0.5 mg/mL BSA, 1 mM DTT; 27 nM protein, 750 pM RNA pool; temperature not stated; high values mean tight binding.
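Note: DESeq read counts versus GST-SBP nonspecific binding control pulldown.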

Row | Sequence | binding signal (log2 fold change)
1 | GGUCACGUCUCAAUCAACUCAUUCUCCAGGGAAAACCCUGGCUAAUUCAACAGCUCGCAGUCAAG | -0.0762
2 | GGUCACGUCUCAAUCAACUCAUUUUCAGGAGUUUCCUCCUGUAUUUUCAACAGCUCGCAGUCAAG | -0.0899
3 | GGUCACGUCUCAAUCAACUCAUUUUCCAGGGAAAACCCUGGCUUACUCAACAGCUCGCAGUCAAG | 0.1
4 | GGUCACGUCUCAAUCAACUCUAUAGAGGGGGGGAAAACCCCUUUGCCCUCACACUCAACAGCUCGCAGUCAAG | -0.212
5 | GGUCACGUCUCAAUCAACUCAAUUCCAGGAGUUUUCUCCUGCAUUUUCAACAGCUCGCAGUCAAG | 0.0141
6 | GGUCACGUCUCAAUCAACUCAUCUCCAGGAGUUUUCUCCUGUAAACUCAACAGCUCGCAGUCAAG | 0.183
7 | GGUCACGUCUCAAUCAACUCAUCCCCAGGAGUUUCCUCCUGCUUUCUCAACAGCUCGCAGUCAAG | 0.111
8 | GGUCACGUCUCAAUCAACUCAUUUUCAGGAGUUUGCUCCUGCUUUUUCAACAGCUCGCAGUCAAG | 0.215
9 | GGUCACGUCUCAAUCAACUCUCUAGAGGGGGGGAAAACCCCUUUACCCUCACCUUCAACAGCUCGCAGUCAAG | 0.209
10 | GGUCACGUCUCAAUCAACUCCCACGAGGGGGGGAAAACCCCUUUACCCUCUUAUUCAACAGCUCGCAGUCAAG | -0.173
11 | GGUCACGUCUCAAUCAACUCAAUAGAGGGGGGGAAAACCCCUUUACCCUCAACAUCAACAGCUCGCAGUCAAG | -0.117
12 | GGUCACGUCUCAAUCAACUCGUCUUCAGGAGUUUUCUCCUGCAUUCUCAACAGCUCGCAGUCAAG | 0.121
13 | GGUCACGUCUCAAUCAACUCAUAGGAGGGGGGGAAAACCCCUUUACCCUCAAACUCAACAGCUCGCAGUCAAG | -0.215
14 | GGUCACGUCUCAAUCAACUCAUCCUCAGGAGUUUCCUCCUGCAUUCUCAACAGCUCGCAGUCAAG | -0.0411
15 | GGUCACGUCUCAAUCAACUCUUUCUCCAGGGAAACCCCUGGUUUUUUCAACAGCUCGCAGUCAAG | -0.247
16 | GGUCACGUCUCAAUCAACUCCUCUGAGGGGGGGAAAACCCCUUUACCCUCCAAAUCAACAGCUCGCAGUCAAG | 0.246
17 | GGUCACGUCUCAAUCAACUCUUCCUCCAGGGAAAUCCCUGGCAUAUUCAACAGCUCGCAGUCAAG | 0.137
18 | GGUCACGUCUCAAUCAACUCAUUCUCCAGGGAAAGCCCUGGUUAUCUCAACAGCUCGCAGUCAAG | -0.0583
19 | GGUCACGUCUCAAUCAACUCCCAAGAGGGGGGGAAAACCCCUUUGCCCUCCGUAUCAACAGCUCGCAGUCAAG | -0.0928

Row | Sequence | binding signal (log2 fold change)
20 | GGUCACGUCUCAAUCAACUCAUCUUCCAGGGAAACCCCUGGUUUUUUCAACAGCUCGCAGUCAAG | 0.0576
21 | GGUCACGUCUCAAUCAACUCUAUCUCCAGGGAAACCCCUGGUUAUUUCAACAGCUCGCAGUCAAG | -0.0755
22 | GGUCACGUCUCAAUCAACUCUCCUGAGGGGGGGAAAACCCCUUUACCCUCUAAUUCAACAGCUCGCAGUCAAG | -0.16
23 | GGUCACGUCUCAAUCAACUCAUAAGAGGGGGGGAAAACCCCUUUACCCUCCGUUUCAACAGCUCGCAGUCAAG | -0.246
24 | GGUCACGUCUCAAUCAACUCUUUCUCAGGAGUUUCCUCCUGCUUUCUCAACAGCUCGCAGUCAAG | 0.00618
25 | GGUCACGUCUCAAUCAACUCUUUCCCAGGAGUUUUCUCCUGCUUACUCAACAGCUCGCAGUCAAG | 0.137
26 | GGUCACGUCUCAAUCAACUCUUCCCCAGGAGUUUUCUCCUGUUAUGUCAACAGCUCGCAGUCAAG | -0.00236
27 | GGUCACGUCUCAAUCAACUCAAUUUCAGGAGUUUACUCCUGCUUAUUCAACAGCUCGCAGUCAAG | 0.0155
28 | GGUCACGUCUCAAUCAACUCUCAAGAGGGGGGGAAAACCCCUUUGCCCUCAUCAUCAACAGCUCGCAGUCAAG | -0.435
29 | GGUCACGUCUCAAUCAACUCUUCUCCCAGGGAAAGCCCUGGCUAUGUCAACAGCUCGCAGUCAAG | -0.208
30 | GGUCACGUCUCAAUCAACUCUUCCCCCAGGGAAAUCCCUGGCAAUGUCAACAGCUCGCAGUCAAG | -0.0416
31 | GGUCACGUCUCAAUCAACUCAAUCUCAGGAGUUUACUCCUGUAAUCUCAACAGCUCGCAGUCAAG | 0.0307
32 | GGUCACGUCUCAAUCAACUCAUACGAGGGGGGGAAAACCCCUUUACCCUCAAUCUCAACAGCUCGCAGUCAAG | 0.149
33 | GGUCACGUCUCAAUCAACUCAUUUCCAGGAGUUUGCUCCUGCAAUCUCAACAGCUCGCAGUCAAG | 0.0311
34 | GGUCACGUCUCAAUCAACUCAUCCCCCAGGGAAAGCCCUGGUAUUUUCAACAGCUCGCAGUCAAG | -0.281
35 | GGUCACGUCUCAAUCAACUCUACUCCCAGGGAAACCCCUGGUAAUUUCAACAGCUCGCAGUCAAG | 0.236
36 | GGUCACGUCUCAAUCAACUCAAGUCCCAGGGAAACCCCUGGCUAAUUCAACAGCUCGCAGUCAAG | -0.279
37 | GGUCACGUCUCAAUCAACUCAACUCCAGGAGUUUACUCCUGUUAACUCAACAGCUCGCAGUCAAG | -0.0113
